Whole data set: some 81,000 sequences, median “one-hybrid fitness for binding parS DNA” near -0.17, cut for the highest 2% near 0.51. This is one part of the list.
B1: Caulobacter ParB omega fusion; a variant is named by its letters at X, in order, B8GW30 (parent)
chain: MESVVVGEPGMSEGRRGLGRGLSALLGEVDAAPAQAPGEQLGGSREAPIEILQRNPDQPRRTFREEDLEDLSNSIREKGVLQPILVRPSPDTAGEYQIVAGERAWRAAQRAGLKTVPIMVRELDDLAVLEIGIIENVQRADLNVLEEALSYKVLMEKFERTQENIAQTIGKSXSHVANXMRLLXLPDEVQSYLVSGELTAXHARAIAAAADPVALAKQIIEGGLSVRETEALARKAPNLSAGKSKGGRPPRVKDTDTQALESDLSSVLGLDVSIDHRGSTGTLTITYATLEQLDDLCNRLTRGI

Variants of: B1
Experiment: one-hybrid fitness for binding parS DNA (scaled: cognate 1, non-cognate 0); higher = stronger binding
Conditions: with parS DNA site
Summary of the method: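 The reporter was HIS3, with the binding site 19 bp from the promoter, in E. coli USO used for bacterial one-hybrid selection of Caulobacter ParB libraries with four specificity codons randomised. Growth was on M9 lacking histidine, with 0.1 mM IPTG and 5 mM 3-AT, for 48 hours at 37°C. Illumina sequencing covered plasmids before and after selection; three replicate libraries were pooled and variants with under 10 reads dropped. A fitness score is the log change in variant-to-wild-type read ratio, rescaled to the cognate and non-cognate references.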

Variant | one-hybrid fitness for binding parS DNA
KTSM | ≤ 0.2
GYPM | ≤ 0.2
RWDN | ≤ 0.2
RGYC | 0.527
KIKY | ≤ 0.2
LMLC | ≤ 0.2
PIYT | ≤ 0.2
EGQR | ≤ 0.2
VYNM | ≤ 0.2
SICL | ≤ 0.2
IQDV | ≤ 0.2
IQSI | ≤ 0.2
YILC | ≤ 0.2
FTYW | ≤ 0.2
AVRK | ≤ 0.2
TYHS | ≤ 0.2
GPAY | ≤ 0.2
LRYC | ≤ 0.2
MRIR | ≤ 0.2
NLTA | ≤ 0.2
LIPK | ≤ 0.2
FVVS | ≤ 0.2
PSYY | ≤ 0.2
SDNS | ≤ 0.2

Variant | one-hybrid fitness for binding parS DNA
ACYL | ≤ 0.2
KFFG | ≤ 0.2
RRVK | ≤ 0.2
WTTR | ≤ 0.2
MQRG | ≤ 0.2
FWEL | 0.329
QTFK | ≤ 0.2
AWDL | ≤ 0.2
AVID | 0.231
INER | ≤ 0.2
QRVE | ≤ 0.2
IQIG | ≤ 0.2
LNLR | ≤ 0.2
SMCS | ≤ 0.2
CRGT | ≤ 0.2
SMAY | ≤ 0.2
ECGT | ≤ 0.2
PNTV | ≤ 0.2
DEPY | ≤ 0.2
NVWS | ≤ 0.2
EARC | ≤ 0.2
EMCF | ≤ 0.2
PFRH | ≤ 0.2
RGPR | ≤ 0.2

Variant | one-hybrid fitness for binding parS DNA
SAYN | ≤ 0.2
FPYD | ≤ 0.2
FVNA | ≤ 0.2
IWNL | ≤ 0.2
ACFK | ≤ 0.2
TCSL | ≤ 0.2
GEAS | ≤ 0.2
TSAV | ≤ 0.2
NLVG | ≤ 0.2
SFWG | ≤ 0.2
DCKR | ≤ 0.2
SRFL | ≤ 0.2
YYYN | ≤ 0.2
WPHF | ≤ 0.2
RANP | ≤ 0.2
TPYT | ≤ 0.2
ERTV | ≤ 0.2
PLGV | ≤ 0.2
VDLG | ≤ 0.2
RLMS | 1.04
ICRM | ≤ 0.2
QIQG | ≤ 0.2
LIPM | ≤ 0.2
EPGT | ≤ 0.2

Variant | one-hybrid fitness for binding parS DNA
MIQT | ≤ 0.2
TAFG | ≤ 0.2
TKWW | ≤ 0.2
EDTD | ≤ 0.2
QDVL | ≤ 0.2
HATH | ≤ 0.2
RIQA | 0.576
KCRF | ≤ 0.2
AGGW | ≤ 0.2
GLPD | ≤ 0.2
AFPV | ≤ 0.2
MRYI | ≤ 0.2
VQHS | ≤ 0.2
PPPG | ≤ 0.2
PYWR | ≤ 0.2
VMTI | ≤ 0.2
KNQP | ≤ 0.2
RPIV | ≤ 0.2
HQLA | ≤ 0.2
ELAR | ≤ 0.2
DVVD | ≤ 0.2
QCPG | ≤ 0.2
LVHC | ≤ 0.2
REVS | ≤ 0.2

Variant | one-hybrid fitness for binding parS DNA
GCKT | ≤ 0.2
MWRY | ≤ 0.2
QCGC | ≤ 0.2
YRVG | ≤ 0.2
KMVS | ≤ 0.2
GSCH | ≤ 0.2
SKYH | ≤ 0.2
LEKP | ≤ 0.2
CTVC | ≤ 0.2
NTTV | ≤ 0.2
TLTK | ≤ 0.2
ANHS | ≤ 0.2
PAYC | ≤ 0.2
SAHV | ≤ 0.2
CGKW | ≤ 0.2
TVPS | ≤ 0.2
AGGS | ≤ 0.2
SQEM | ≤ 0.2
KRFM | ≤ 0.2
GSAS | ≤ 0.2
PDPR | ≤ 0.2
PDVF | ≤ 0.2
ELYG | ≤ 0.2
APTY | ≤ 0.2

Variant | one-hybrid fitness for binding parS DNA
KRDC | ≤ 0.2
AYER | ≤ 0.2
SLSV | ≤ 0.2
NSVN | ≤ 0.2
FCKR | ≤ 0.2
YHVW | ≤ 0.2
YYQV | ≤ 0.2
FPRC | ≤ 0.2
LDRR | ≤ 0.2
QNRH | ≤ 0.2
PFYS | ≤ 0.2
HQCT | ≤ 0.2
WKTR | ≤ 0.2
LYVC | ≤ 0.2
LWAL | ≤ 0.2
RVCA | 0.608
HADM | ≤ 0.2
NVGW | ≤ 0.2
SPRQ | ≤ 0.2
LNCR | ≤ 0.2
LRPW | ≤ 0.2
GVRF | ≤ 0.2
KCCC | ≤ 0.2
KSPM | ≤ 0.2

Variant | one-hybrid fitness for binding parS DNA
FAPC | ≤ 0.2
RYLF | 0.217
LSTK | ≤ 0.2
NCWS | ≤ 0.2
QYYT | ≤ 0.2
KQPL | ≤ 0.2
CSTA | ≤ 0.2
YLDA | ≤ 0.2
PSAE | ≤ 0.2
LDVR | ≤ 0.2
FEQS | ≤ 0.2
QTWR | ≤ 0.2
LFVM | ≤ 0.2
NPNL | ≤ 0.2
RATT | 0.915
LSFT | ≤ 0.2
IDPD | ≤ 0.2
LQET | ≤ 0.2
DKKC | ≤ 0.2
NAPI | ≤ 0.2
LPPC | ≤ 0.2
IQKS | ≤ 0.2
CNAT | ≤ 0.2
RGTW | ≤ 0.2

Variant | one-hybrid fitness for binding parS DNA
PLDC | ≤ 0.2
NATS | ≤ 0.2
PTHC | ≤ 0.2
NLTC | ≤ 0.2
RIIA | 0.499
MCRC | ≤ 0.2
ELRF | ≤ 0.2
RIVG | 0.946
MSPC | ≤ 0.2
EIHS | ≤ 0.2
QYTR | ≤ 0.2
RCAQ | 0.205
SFWY | ≤ 0.2
IYAM | ≤ 0.2
WWSG | ≤ 0.2
FHRN | ≤ 0.2
RIKL | ≤ 0.2
TVNM | ≤ 0.2
ILIS | ≤ 0.2
RRFV | ≤ 0.2
YCTY | ≤ 0.2
PIGT | ≤ 0.2
PSPL | ≤ 0.2
ISLV | ≤ 0.2

Variant | one-hybrid fitness for binding parS DNA
LNHC | ≤ 0.2
LFTW | ≤ 0.2
AMSY | ≤ 0.2
NDRY | ≤ 0.2
GSMI | ≤ 0.2
SKSH | ≤ 0.2
YTYD | ≤ 0.2
NANF | ≤ 0.2
EYMT | ≤ 0.2
RRQT | 0.551
ILYP | ≤ 0.2
GNWG | ≤ 0.2
RHFK | ≤ 0.2
MFMG | ≤ 0.2
LGLM | ≤ 0.2
RLFH | 0.258
MKTK | ≤ 0.2
APVY | ≤ 0.2
QKHC | ≤ 0.2
LKCV | ≤ 0.2
LWHT | ≤ 0.2
QWYT | ≤ 0.2
RASH | 0.225
VYVL | ≤ 0.2

Variant | one-hybrid fitness for binding parS DNA
FEAS | ≤ 0.2
TFTF | ≤ 0.2
QVPD | ≤ 0.2
FNYI | ≤ 0.2
HRWH | ≤ 0.2
GSSF | ≤ 0.2
KYAK | ≤ 0.2
RDHQ | ≤ 0.2
LAFS | ≤ 0.2
RCAD | 0.25
RHGA | 0.546
YYHN | ≤ 0.2
QCNF | ≤ 0.2
CRKY | ≤ 0.2
PVDT | ≤ 0.2
QKHN | ≤ 0.2
GSKD | 0.213
MSPG | ≤ 0.2
ACYR | ≤ 0.2
AGAS | ≤ 0.2
RTPY | 0.221
CAPV | ≤ 0.2
QMND | ≤ 0.2
FGAF | ≤ 0.2

Variant | one-hybrid fitness for binding parS DNA
VPIK | ≤ 0.2
NCVG | ≤ 0.2
HRLM | ≤ 0.2
RAPP | ≤ 0.2
HARC | ≤ 0.2
QGQL | ≤ 0.2
YCNG | ≤ 0.2
PGDW | ≤ 0.2
DYHR | ≤ 0.2
PTYH | ≤ 0.2
RKES | 0.899
RFEC | 0.727
AGKI | ≤ 0.2
SWHI | ≤ 0.2
VGHT | ≤ 0.2
MGVS | ≤ 0.2
GRIR | ≤ 0.2
PWSI | ≤ 0.2
QARN | ≤ 0.2
HTGY | ≤ 0.2
MVFS | ≤ 0.2
YAPP | ≤ 0.2
VFTP | ≤ 0.2
RPMY | ≤ 0.2

Variant | one-hybrid fitness for binding parS DNA
GLNS | ≤ 0.2
ATVG | ≤ 0.2
PHDV | ≤ 0.2
QAVN | ≤ 0.2
ILIG | ≤ 0.2
QVAP | ≤ 0.2
FRNS | ≤ 0.2
QKFT | ≤ 0.2
NACG | ≤ 0.2
QNMN | ≤ 0.2
KHQH | ≤ 0.2
QILF | ≤ 0.2
IPTK | ≤ 0.2
GHLM | ≤ 0.2
DEYM | ≤ 0.2
TTFT | ≤ 0.2
AWVD | ≤ 0.2
SRPE | ≤ 0.2
TPGN | ≤ 0.2
HPKC | ≤ 0.2
NAHG | ≤ 0.2
SNNC | ≤ 0.2
MVSR | ≤ 0.2
SSSD | ≤ 0.2

Variant | one-hybrid fitness for binding parS DNA
DNIS | ≤ 0.2
SNKA | ≤ 0.2
CTWP | ≤ 0.2
RCTD | ≤ 0.2
RRLA | 0.815
QPNT | ≤ 0.2
APHR | ≤ 0.2
TQLS | ≤ 0.2
AFPL | ≤ 0.2
CRNG | ≤ 0.2
YLQC | ≤ 0.2
SQIR | ≤ 0.2
KRWR | ≤ 0.2
TKPG | ≤ 0.2
QLFG | ≤ 0.2
TTCH | ≤ 0.2
LDSR | ≤ 0.2
VEPS | ≤ 0.2

From a collection of fitness landscapes (doi:10.1016/j.celrep.2020.107928)
